According to the supplement of paper PMC10320760:
Single values of this set are uncertain.

B1: Ydj1; a variant is named by its letters at X, in order (parent)
chain: MVKETKFYDILGVPVTATDVEIKKAYRKCALKYHPDKNPSEEAAEKFKEASAAYEILSDPEKRDIYDQFGEDGLSGAGGAGGFPGGGFGFGDDIFSQFFGAGGAQRPRGPQRGKDIKHEISASLEELYKGRTAKLALNKQILCKECEGRGGKKGAVKKCTSCNGQGIKFVTRQMGPMIQRFQTECDVCHGTGDIIDPKDRCKSCNGKKVENERKILEVHVEPGMKDGQRIVFKGEADQAPDVIPGDVVFIVSERPHKSFKRDGDDLVYEAEIDLLTAIAGGEFALEHVSGDWLKVGIVPGEVIAPGMRKVIEGKGMPIPKYGGYGNLIIKFTIKFPENHFTSEENLKKLEEILPPRIVPAIPKKATVDECVLADFDPAKYNRTRASRGGANYDSDEEEQGGEGVQCXXX

Variants of: B1
Test: enrichment factor, frequency at 37 °C / frequency at 25 °C (thermotolerance selection) (ratio); higher = more growth at 37 °C, higher likelihood of farnesylation
Settings: with Saccharomyces cerevisiae ydj1Δ (yWS304); selective temperature 37 °C; reference temperature 25 °C

| Variant | enrichment factor |
| --- | --- |
| MPP | 0.22 |
| MPR | 0.151 |
| MPW | 1.1 |
| MPK | 0.245 |
| MPH | 1.27 |
| MPT | 1.9 |
| MPQ | 1.51 |
| MPF | 0.842 |
| MPS | 1.47 |
| MPE | 0.313 |
| MPG | 2.66 |
| MPM | 1.33 |
| MPN | 1.64 |
| MPL | 1.69 |
| MPV | 2.55 |
| MPI | 2 |
| GPY | 1.1 |
| GPQ | 1.75 |
| GPN | 1.05 |
| GPI | 1.59 |
| GPF | 2.05 |
| GPT | 1.53 |
| GPM | 1.97 |
| GPK | 0.0862 |

| Variant | enrichment factor |
| --- | --- |
| GPP | 0.109 |
| GPS | 2.02 |
| GPL | 0.492 |
| GPE | 0.166 |
| GPR | 0.138 |
| GPV | 1.84 |
| GPW | 0.806 |
| GPG | 0.967 |
| GPH | 0.211 |
| IPT | 2.63 |
| IPH | 1.79 |
| IPE | 0.808 |
| IPQ | 1.5 |
| IPF | 3.24 |
| IPV | 1.51 |
| IPW | 1.02 |
| IPK | 0.084 |
| IPS | 1.99 |
| IPL | 1.58 |
| IPR | 0.0943 |
| IPG | 1.75 |
| IPN | 1.62 |
| IPP | 0.258 |
| IPI | 3.01 |

| Variant | enrichment factor |
| --- | --- |
| IPM | 2.32 |
| KPK | 0.127 |
| KPS | 1.61 |
| KPP | 0.158 |
| KPL | 1.02 |
| KPM | 1.97 |
| KPW | 1.17 |
| KPF | 1.57 |
| KPG | 2 |
| KPQ | 2.31 |
| KPH | 1.43 |
| KPE | 0.381 |
| KPV | 1.38 |
| KPN | 1.23 |
| KPT | 1.44 |
| KPI | 1.44 |
| KPR | 0.0652 |
| EPG | 0.961 |
| EPH | 0.3 |
| EPQ | 1.98 |
| EPP | 0.305 |
| EPV | 1.54 |
| EPM | 1.61 |
| EPT | 1.22 |

| Variant | enrichment factor |
| --- | --- |
| EPF | 1.22 |
| EPN | 1.19 |
| EPL | 0.686 |
| EPY | 1.44 |
| EPW | 1.11 |
| EPR | 0.211 |
| EPK | 0.0902 |
| EPS | 2.12 |
| EPI | 1.48 |
| EPE | 0.249 |
| LPF | 2.1 |
| LPN | 1.86 |
| LPG | 1.58 |
| LPM | 2.06 |
| LPT | 2.23 |
| LPI | 1.59 |
| LPP | 0.158 |
| LPV | 1.81 |
| LPL | 1.52 |
| LPQ | 1.97 |
| LPW | 1.16 |
| LPK | 0.225 |
| LPH | 2.04 |
| LPR | 0.295 |

| Variant | enrichment factor |
| --- | --- |
| LPS | 2.54 |
| LPE | 0.263 |
| CPF | 0.651 |
| CPW | 0.761 |
| CPH | 1.84 |
| CPK | 0.0832 |
| CPG | 2.7 |
| CPR | 0.134 |
| CPI | 0.392 |
| CPV | 1.58 |
| CPS | 1.45 |
| CPN | 2.08 |
| CPE | 0.472 |
| CPM | 1.31 |
| CPT | 1.54 |
| CPP | 0.137 |
| CPL | 1.41 |
| CPD | 1.83 |
| CPQ | 1.72 |
| WPR | 0.257 |
| WPP | 1.74 |
| WPM | 1.16 |
| WPH | 1.52 |
| WPE | 1.58 |

| Variant | enrichment factor |
| --- | --- |
| WPL | 1.05 |
| WPW | 1.66 |
| WPG | 1.1 |
| WPK | 0.245 |
| WPF | 0.913 |
| WPI | 1.07 |
| WPS | 0.82 |
| WPN | 1.47 |
| WPT | 1.82 |
| WPQ | 1.33 |
| WPD | 2.29 |
| WPV | 0.988 |
| NPT | 1.76 |
| NPK | 0.238 |
| NPE | 0.219 |
| NPP | 0.254 |
| NPS | 2.06 |
| NPW | 1.51 |
| NPL | 1.63 |
| NPG | 1.56 |
| NPI | 1.86 |
| NPR | 0.187 |
| NPQ | 1.68 |
| NPN | 1.47 |

| Variant | enrichment factor |
| --- | --- |
| NPM | 1.47 |
| NPH | 1.42 |
| NPV | 1.53 |
| NPF | 0.989 |
| DPV | 0.919 |
| DPF | 1.77 |
| DPT | 0.385 |
| DPQ | 1.75 |
| DPK | 0.198 |
| DPS | 1.79 |
| DPM | 1.5 |
| DPW | 0.288 |
| DPG | 0.777 |
| DPE | 0.178 |
| DPP | 0.203 |
| DPH | 0.18 |
| DPR | 0.177 |
| DPN | 0.32 |
| DPI | 0.639 |
| DPL | 0.203 |
| DPY | 0.543 |
| RPT | 1.45 |
| RPW | 0.724 |
| RPD | 1.85 |

| Variant | enrichment factor |
| --- | --- |
| RPH | 1.45 |
| RPR | 0.199 |
| RPI | 1.39 |
| RPF | 0.985 |
| RPQ | 1.29 |
| RPS | 1.71 |
| RPE | 0.788 |
| RPK | 0.14 |
| RPL | 1.68 |
| RPP | 0.158 |
| RPV | 1.84 |
| RPM | 2.43 |
| RPN | 1.51 |
| RPG | 1.73 |
| PPH | 1.14 |
| PPR | 0.202 |
| PPN | 1.49 |
| PPQ | 1.72 |
| PPP | 0.178 |
| PPG | 1.74 |
| PPK | 0.227 |
| PPL | 0.673 |
| PPS | 1.74 |
| PPT | 1.61 |

| Variant | enrichment factor |
| --- | --- |
| PPV | 1.6 |
| PPI | 1.35 |
| PPF | 1.22 |
| PPW | 1.06 |
| PPD | 0.513 |
| PPE | 0.127 |
| PPM | 1.55 |
| QPD | 1.31 |
| QPE | 0.187 |
| QPS | 1.83 |
| QPF | 1.78 |
| QPN | 2.09 |
| QPL | 2.03 |
| QPQ | 1.7 |
| QPW | 2.07 |
| QPH | 1.78 |
| QPT | 1.99 |
| QPM | 1.99 |
| QPG | 2.18 |
| QPP | 0.255 |
| QPK | 0.165 |
| QPV | 2.48 |
| QPI | 2.08 |
| QPR | 0.144 |

| Variant | enrichment factor |
| --- | --- |
| TPQ | 2.17 |
| TPE | 0.822 |
| TPP | 0.188 |
| TPV | 2.52 |
| TPH | 1.79 |
| TPR | 0.155 |
| TPN | 1.25 |
| TPF | 1.99 |
| TPW | 1.17 |
| TPI | 1.7 |
| TPT | 1.84 |
| TPL | 1.82 |
| TPS | 2.78 |
| TPK | 0.102 |
| TPG | 1.46 |
| TPM | 1.93 |
| TPD | 1.82 |
| HPK | 0.2 |
| HPW | 1.22 |
| HPS | 1.67 |
| HPP | 0.236 |
| HPG | 2.58 |
| HPR | 0.169 |
| HPE | 0.257 |

| Variant | enrichment factor |
| --- | --- |
| HPT | 2.22 |
| HPI | 1.84 |
| HPQ | 1.91 |
| HPM | 1.67 |
| HPN | 1.65 |
| HPL | 1.62 |
| HPH | 1.44 |
| HPF | 1.53 |
| HPV | 2.33 |
| FPH | 1.22 |
| FPQ | 2.22 |
| FPK | 0.192 |
| FPI | 2.53 |
| FPT | 2.11 |
| FPV | 1.96 |
| FPN | 1.79 |
| FPM | 1.56 |
| FPG | 1.51 |
| FPE | 0.24 |
| FPY | 1.77 |
| FPS | 1.76 |
| FPP | 0.918 |
| FPR | 0.127 |
| FPL | 2.06 |

| Variant | enrichment factor |
| --- | --- |
| FPW | 1.16 |
| FPF | 1.85 |
| SPR | 0.12 |
| SPK | 0.149 |
| SPH | 1.87 |
| SPS | 1.85 |
| SPM | 1.46 |
| SPL | 2 |
| SPE | 0.433 |
| SPI | 1.75 |
| SPN | 2.02 |
| SPT | 2.08 |
| SPP | 0.158 |
| SPD | 1.34 |
| SPQ | 1.91 |
| SPG | 3.77 |
| SPW | 1.72 |
| SPF | 1.08 |
| SPV | 1.37 |
| APM | 1.6 |
| APV | 1.73 |
| APP | 0.164 |
| APS | 2.06 |
| APT | 2.66 |

| Variant | enrichment factor |
| --- | --- |
| APL | 2.15 |
| APE | 0.495 |
| APR | 0.104 |
| APK | 0.144 |
| APQ | 1.8 |
| APN | 1.82 |
| APF | 0.957 |
| APH | 1.47 |
| API | 1.71 |
| APW | 1.36 |
| APY | 2.16 |
| APG | 2.73 |
| VPW | 0.945 |
| VPT | 2.24 |
| VPG | 2.16 |
| VPP | 0.17 |
| VPR | 0.174 |
| VPK | 0.193 |
| VPI | 2.37 |
| VPQ | 1.77 |
| VPE | 0.616 |
| VPN | 2.34 |
| VPM | 2.77 |
| VPF | 2.32 |

| Variant | enrichment factor |
| --- | --- |
| VPD | 1.92 |
| VPL | 1.9 |
| VPV | 3.68 |
| VPS | 2.01 |
| VPH | 1.83 |
| YPR | 0.142 |
| YPI | 2.26 |
| YPE | 0.15 |
| YPM | 2.44 |
| YPD | 0.914 |
| YPQ | 2.53 |
| YPN | 1.49 |
| YPP | 0.302 |
| YPK | 0.144 |
| YPV | 3.14 |
| YPS | 2.23 |
| YPG | 2.28 |
| YPH | 0.984 |
| YPW | 1.16 |
| YPF | 1.08 |
| YPT | 2.96 |
| YPL | 2.44 |
